Assay results as given in PubChem BioAssay (NCI).
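Assay format: 96-well plates, 48-hour exposure. GI50 is the concentration that inhibits growth by half. At the TGI there is no net growth.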

System: NCI-H322M lung
Assay: DTP human tumour cell line panel, 48 h

What does the source list for `COc1cc(/C=C/C(=O)c2ccc(C)cc2)ccc1Oc1nc(Nc2ccc(F)cc2)nc(N(C)C)n1`?
GI50: 51.9 µM; TGI: > 100 µM

With `Oc1ccc(F)c(Nc2nc(SCCN3CCOCC3)nc3c2cnn3CC(Cl)c2ccc(Br)cc2)c1` (centres undefined) as the compound, how does the GI50 read?
Its GI50 is 30.3 µM.

And the TGI?
The TGI was greater than 100 µM.
